Laboratory results: PMC4336329 (PLoS ONE, 2015)
The whole screen tested about 310,000 compounds, of which about 14,000 (4.5%) showed an effect of 50% or more. The effect is printed as a negative number. The list shows a part of the results.

The compounds below were run against human ether-à-go-go-related gene (hERG) potassium channel (human, UniProt Q12809) (assay: primary screen, population patch clamp on CHO cells stably expressing hERG).
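Also: peak tail current of the secondary pulse compared with the same well before compound.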

human ether-à-go-go-related gene (hERG) potassium channel, sequence (Q12809 whole entry, looked up): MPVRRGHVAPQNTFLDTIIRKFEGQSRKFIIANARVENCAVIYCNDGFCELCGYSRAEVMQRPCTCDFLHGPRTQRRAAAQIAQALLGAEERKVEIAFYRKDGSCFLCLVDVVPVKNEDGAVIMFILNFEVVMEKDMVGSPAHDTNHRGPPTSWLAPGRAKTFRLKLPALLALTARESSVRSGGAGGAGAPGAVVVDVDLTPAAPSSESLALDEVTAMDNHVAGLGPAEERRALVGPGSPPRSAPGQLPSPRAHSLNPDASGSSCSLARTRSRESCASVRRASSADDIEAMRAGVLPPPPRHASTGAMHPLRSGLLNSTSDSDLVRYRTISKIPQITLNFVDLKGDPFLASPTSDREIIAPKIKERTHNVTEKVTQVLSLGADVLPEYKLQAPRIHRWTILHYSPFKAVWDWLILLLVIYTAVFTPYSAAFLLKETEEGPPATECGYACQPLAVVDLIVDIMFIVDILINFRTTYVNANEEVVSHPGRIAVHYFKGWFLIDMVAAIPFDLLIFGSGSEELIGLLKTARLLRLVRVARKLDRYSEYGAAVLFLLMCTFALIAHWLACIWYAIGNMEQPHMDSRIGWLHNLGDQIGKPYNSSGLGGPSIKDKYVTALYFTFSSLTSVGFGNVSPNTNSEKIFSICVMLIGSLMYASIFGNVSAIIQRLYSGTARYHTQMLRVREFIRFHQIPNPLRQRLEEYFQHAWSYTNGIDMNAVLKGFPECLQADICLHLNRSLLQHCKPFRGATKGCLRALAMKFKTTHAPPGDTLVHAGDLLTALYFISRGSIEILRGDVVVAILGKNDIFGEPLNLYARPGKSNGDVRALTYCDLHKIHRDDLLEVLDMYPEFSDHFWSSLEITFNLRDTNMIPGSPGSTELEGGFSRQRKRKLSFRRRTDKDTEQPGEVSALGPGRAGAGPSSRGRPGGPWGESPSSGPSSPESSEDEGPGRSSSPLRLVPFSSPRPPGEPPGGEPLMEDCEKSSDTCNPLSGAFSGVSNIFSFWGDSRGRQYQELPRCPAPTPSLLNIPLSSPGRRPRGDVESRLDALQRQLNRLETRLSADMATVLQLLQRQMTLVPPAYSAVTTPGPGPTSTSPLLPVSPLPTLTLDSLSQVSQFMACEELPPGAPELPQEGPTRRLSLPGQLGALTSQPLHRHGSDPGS

Going from `O=[N+]([O-])c1c(C(Cl)Cl)nn(-c2ccc(Cl)cc2)c1N1CCCCC1` to `O=c1ccc(S(=O)(=O)N2CCCC2)cn1Cc1ccc(Cl)cc1Cl`, the “hERG current change (%, negative = inhibition) at 10uM” value falls from 5.67% to -14.2%.

Going from `C=CCn1c(SCc2ccc3nonc3c2)nnc1-c1cccs1` to `Nc1cc(N)nc(SCc2nnnn2-c2ccc(Cl)cc2)n1`, the “hERG current change (%, negative = inhibition) at 10uM” value rises from -68.7% to 0.246%.

First: CC(CCc1ccccc1)NC(=O)COC(=O)c1cccc(N(C)C)c1 (stereo not shown)
Second: CN(Cc1ccccc1)C(=O)c1ccc(NC(=O)c2ccccc2)cc1
The “hERG current change (%, negative = inhibition) at 10uM” value of the first is higher: -19.1% for the first, -59.9% for the second.

Going from `COc1ccc(NC(=O)c2cccnc2)c([N+](=O)[O-])c1` to `CC(=O)/C=C\c1ccc(OC(=O)c2cccnc2)cc1`, the “hERG current change (%, negative = inhibition) at 10uM” value falls from 24% to 21.1%.

Going from `O=C(CSc1nnc(CNC(=O)c2cccs2)o1)Nc1ccccc1C(F)(F)F` to `O=C(Nc1ccccc1C(F)(F)F)c1ccc(F)c(S(=O)(=O)N2CCOCC2)c1`, the “hERG current change (%, negative = inhibition) at 10uM” value rises from -21.2% to 0.595%.

Compared with `O=C(O)c1ccc(-n2nc(C(F)(F)F)c3c2CCCC3)cc1`, `COc1ccc(N(C)C(=O)c2onc3c2CCCC3)cc1` is lower in “hERG current change (%, negative = inhibition) at 10uM” value: 21.1% for the first, 17.4% for the second.

Going from `COCCNC(=O)C(c1ccc(F)cc1)N(C(=O)CCC(=O)Nc1nccs1)c1ccc(C)cc1` (stereo not shown) to `Cc1ccc(SCCC(=O)Nc2nccs2)cc1`, the “hERG current change (%, negative = inhibition) at 10uM” value rises from -14.1% to -2.24%.

First: CCOC(=O)c1c(CSCc2ccccc2)oc2ccc(O)c(CN(C)C)c12.Cl
Second: CCc1ccc(CN(C)Cc2nc(Cc3ccccc3)no2)nc1
The “hERG current change (%, negative = inhibition) at 10uM” value of the first is lower: -73.4% for the first, -13.5% for the second.

Compared with `CCCC1=C(C(=O)OCC)C(c2ccccc2OC)NC(=O)N1` (stereo not shown), `CCCc1cc(=O)n2[nH]c(NCc3ccc(OC)c(OC)c3)nc2n1` is higher in “hERG current change (%, negative = inhibition) at 10uM” value: 9.13% for the first, 15% for the second.

Going from `CC1(C)CC(=O)C2=C(C1)N(c1ccc(F)cc1)C(N)=C(C#N)C2c1cccs1` (stereo not shown) to `CC1(C)CC(=O)C=C(Nc2cccc(F)c2)C1`, the “hERG current change (%, negative = inhibition) at 10uM” value rises from -2.09% to 17%.

First: O=C1Nc2ccccc2/C1=N\N1CCOCC1
Second: O=c1c(-c2ccc(Cl)cc2)coc2c(CN3CCOCC3)c(O)ccc12
The “hERG current change (%, negative = inhibition) at 10uM” value of the first is higher: 2.95% for the first, -8.33% for the second.

Compared with `CCC(=O)NC(c1cc(Cl)c2cccnc2c1O)C1CC1` (stereo not shown), `CCN(CC)CC(=O)NC1CCCc2c1cnn2-c1cc(F)cc(F)c1` (stereo not shown) is lower in “hERG current change (%, negative = inhibition) at 10uM” value: -4.46% for the first, -9.77% for the second.

Compared with `Cc1ccc(N2CCN(/N=C/c3ccccc3)CC2)cc1`, `CN1CCN(c2ccccc2NC(=O)c2cc3ccccc3o2)CC1` is lower in “hERG current change (%, negative = inhibition) at 10uM” value: 14% for the first, -39.2% for the second.

Compared with `Cc1ccn(-c2cccc(-n3ccc(C)n3)n2)n1`, `CC(=O)N/C(=N/c1nc(C)cc(C)n1)Nc1cccc(C)c1` is lower in “hERG current change (%, negative = inhibition) at 10uM” value: 9.59% for the first, -21.9% for the second.

Compared with `COCCn1nnnc1CN1CCN(c2cccc(C(F)(F)F)c2)CC1`, `CCOC(=O)C1CCN(C(=O)c2ccc(OCC(=O)Nc3cccc(C(F)(F)F)c3)c(OC)c2)CC1` is lower in “hERG current change (%, negative = inhibition) at 10uM” value: -9.2% for the first, -61.9% for the second.

Compared with `Cc1csc2c(SCC(=O)NNC(=O)C(Cl)Cl)ncnc12`, `Cc1ccc(Cl)cc1NC(=O)CSc1sc2c(O)cc(=O)[nH]c2c1C#N` is higher in “hERG current change (%, negative = inhibition) at 10uM” value: 0.752% for the first, 1.68% for the second.

Going from `O=S(=O)(c1ccc(F)c(F)c1)N1CCN(c2ccccn2)CC1` to `Cc1c(C(=O)Nc2ccc(S(=O)(=O)N3CCOCC3)cc2)cccc1[N+](=O)[O-]`, the “hERG current change (%, negative = inhibition) at 10uM” value falls from 1.99% to 1.39%.

Compared with `CC1CCN(CC(=O)Nc2ccc(S(=O)(=O)NC3CC3)cc2)CC1.O=C(O)C(=O)O`, `CC(=O)c1ccc(NC(=O)C2C3CCC(C3)C2C(=O)O)cc1` (stereo not shown) is higher in “hERG current change (%, negative = inhibition) at 10uM” value: -15.4% for the first, 17.8% for the second.

Going from `C=CCn1c(=O)n(C(=O)OCC)c2cc(Br)ccc21` to `CCOC(=O)N1CC[NH+](CCC(=O)Nc2cccc(Br)c2)CC1.[Cl-]`, the “hERG current change (%, negative = inhibition) at 10uM” value rises from -50.2% to -30.2%.

Compared with `COc1ccc(C(=O)Nn2cnc3ccccc3c2=O)c(OC)c1`, `COc1ccc(Br)c(C(=O)Nc2nc3ccccc3[nH]2)c1` is higher in “hERG current change (%, negative = inhibition) at 10uM” value: 8.59% for the first, 19.8% for the second.

Going from `CCc1ccc(NC(=O)CCn2cccc2)cc1` to `CCN(CC)S(=O)(=O)c1ccc(NC(=O)Cn2c(=O)sc3ccccc32)cc1`, the “hERG current change (%, negative = inhibition) at 10uM” value falls from 5.24% to -10.9%.

First: O=C(Nc1ccccc1)OCc1cnc(Cl)s1
Second: Cc1sc2ncn(-c3ccccc3)c(=O)c2c1C
The “hERG current change (%, negative = inhibition) at 10uM” value of the first is higher: 14.7% for the first, 11.5% for the second.

Going from `COc1ccc(C(=O)NCC(=O)OCC(=O)Nc2ncc(Cl)cc2Cl)cc1[N+](=O)[O-]` to `NS(=O)(=O)c1cccc(NC(=O)COC(=O)c2cc(Cl)ccc2[N+](=O)[O-])c1`, the “hERG current change (%, negative = inhibition) at 10uM” value rises from -37.3% to 2.71%.

Going from `C/C(=C\c1ccccc1)C(=O)c1c(C)cc(C)[nH]c1=O` to `Cc1cc(C)cc(OCC(=O)NN2C(=O)c3ccccc3C2=O)c1`, the “hERG current change (%, negative = inhibition) at 10uM” value falls from 4.75% to -3.98%.

First: CCOC(=O)CCCNC(=O)CSc1nc2ccc(OCC)cc2[nH]1
Second: CCOCCCNC(=O)CN(c1cc([N+](=O)[O-])ccc1OC)S(C)(=O)=O
The “hERG current change (%, negative = inhibition) at 10uM” value of the first is lower: 16.1% for the first, 24.3% for the second.

Going from `Cc1cccc(NC(=O)CN2CCCCCC2)c1` to `O=C(Nc1cccc(S(=O)(=O)N2CCOCC2)c1)C1CCCC1`, the “hERG current change (%, negative = inhibition) at 10uM” value falls from 7.69% to -4.03%.

Compared with `CCc1ccccc1N(CC(=O)N/N=C/c1ccc(OC(=O)OC)c(OC)c1)S(C)(=O)=O`, `COc1ccc(NC(=O)CN(c2ccc(F)cc2)S(=O)(=O)c2ccccc2)c(OC)c1` is lower in “hERG current change (%, negative = inhibition) at 10uM” value: -5.15% for the first, -11.3% for the second.

Going from `Cc1cccc(Cc2cnc(N3C(=N)SC(c4ccccc4)C3=O)s2)c1` (stereo not shown) to `CCOC(=O)C1=C(c2ccccc2)N=C2SCC(=O)N2C1c1ccc2c(c1)OCO2` (stereo not shown), the “hERG current change (%, negative = inhibition) at 10uM” value falls from 7.98% to -1.14%.

Compared with `Cc1ccc(C(=O)C2=C(O)C(=O)N(Cc3ccco3)C2c2cccc(Br)c2)o1` (stereo not shown), `O=C(CCN1C(=O)c2ccccc2C1=O)NCc1ccco1` is lower in “hERG current change (%, negative = inhibition) at 10uM” value: 12.5% for the first, 5.09% for the second.

Compared with `CCCCCC(=O)Nc1ccc(S(=O)(=O)Nc2ccc(Cl)nn2)cc1.Cl`, `CCOC(=O)C(=O)Nc1ccc(S(=O)(=O)Nc2ncccn2)cc1` is lower in “hERG current change (%, negative = inhibition) at 10uM” value: 12.9% for the first, 2.41% for the second.

Going from `O=C(Oc1cccc(NC(=O)c2cccs2)c1)c1cccc(S(=O)(=O)N2CCCC2)c1` to `COc1ccc(S(=O)(=O)N2CCCC(C(=O)N3CCN(C)CC3)C2)cc1Cl` (stereo not shown), the “hERG current change (%, negative = inhibition) at 10uM” value falls from -7.91% to -12.4%.

First: N/C(=N\OC(=O)c1cccc(Cl)c1)c1cccnc1
Second: O=C(NCc1ccco1)C1CCCN1C(=O)Nc1cccc(Cl)c1 (stereo not shown)
The “hERG current change (%, negative = inhibition) at 10uM” value of the first is lower: 1.32% for the first, 12.5% for the second.

Going from `CC(=O)c1ccc(N2CCC(C(=O)O)CC2)cc1` to `COc1ccc(C(=O)NC2CCN(C(=S)Nc3cccc(C)c3C)CC2)cc1`, the “hERG current change (%, negative = inhibition) at 10uM” value falls from 14.3% to 0.204%.

First: CCCCC[C@H]1CN(Cc2ccccc2)C(=O)[C@@H]1CC(=O)NCc1ccccc1
Second: CN(c1ccccc1)S(=O)(=O)c1ccc(C(=O)NCc2ccccn2)cc1
The “hERG current change (%, negative = inhibition) at 10uM” value of the first is lower: -65.8% for the first, 2.3% for the second.

Compared with `Cc1nnc(SCC(=O)N(CC(C)C)c2c(N)n(CC(C)C)c(=O)[nH]c2=O)n1-c1ccccc1`, `CC1CCCN(Cc2nc3c(c(=O)n(C)c(=O)n3C)n2CCCc2ccccc2)C1` (stereo not shown) is lower in “hERG current change (%, negative = inhibition) at 10uM” value: 14% for the first, -27.8% for the second.

Going from `C#CCNC(=O)C1=C[C@H](c2coc3ccccc3c2=O)[C@@H](CCCO)[C@H](OCC)O1` to `CC1(C)OC(=O)C(=NNc2ccccc2)C(=O)O1`, the “hERG current change (%, negative = inhibition) at 10uM” value rises from -23.3% to 30.1%.

Compared with `C/C(=N\OCC(=O)Nc1ccccc1C(C)(C)C)c1ccc2c(c1)OCCO2`, `Cc1cccc(OCC(=O)N(C)CC(=O)Nc2cccc(F)c2)c1C` is higher in “hERG current change (%, negative = inhibition) at 10uM” value: -10.9% for the first, 2.94% for the second.

Compared with `CC(=O)OCC1OC(c2ccccc2)C(OC(C)=O)C(OC(C)=O)C1OC(C)=O` (stereo not shown), `COc1ccc(C(=O)/C=C/C(=O)N(Cc2ccccc2OC)C(C(=O)NC2CCCCC2)c2ccncc2)c(O)c1` (stereo not shown) is higher in “hERG current change (%, negative = inhibition) at 10uM” value: -4.94% for the first, -1.42% for the second.

Compared with `O=C(Nc1ccncc1)C1(c2ccccc2)CCCC1`, `COc1ccc(-c2nc3ccccc3c(=O)n2-c2cccnc2)cc1` is lower in “hERG current change (%, negative = inhibition) at 10uM” value: -4.27% for the first, -8.9% for the second.

First: CCOc1ccc(N2C(=O)Nc3ccc(Br)cc3C2(O)C(=O)NCCN(C)C)cc1 (stereo not shown)
Second: CCOc1ccc(NC(=S)NC(C)c2cccs2)cc1 (stereo not shown)
The “hERG current change (%, negative = inhibition) at 10uM” value of the first is higher: 19.4% for the first, 14.1% for the second.

First: Cc1ccc(NS(=O)(=O)c2ccc(N/N=C/c3ccncc3)c([N+](=O)[O-])c2)c(C)c1
Second: Cc1ccn2cc(-c3cccc(S(=O)(=O)N4CC(C)OC(C)C4)c3)nc2c1 (stereo not shown)
The “hERG current change (%, negative = inhibition) at 10uM” value of the first is higher: 3.64% for the first, -14.3% for the second.

First: COc1ccc(-c2cc3nc[nH]c(=O)c3s2)cc1
Second: CCN(CC)C(=O)CN(C)S(=O)(=O)c1cccc2nsnc12
The “hERG current change (%, negative = inhibition) at 10uM” value of the first is higher: 19.4% for the first, 12.2% for the second.

Going from `O=C(NC1CCCC1)C1CCCN1C(=O)Nc1ccccc1Cl` (stereo not shown) to `CCOC(=O)NC1(NCC(C)C)Oc2ccccc2O1`, the “hERG current change (%, negative = inhibition) at 10uM” value falls from -1.42% to -2.09%.

First: CCN(CC)C(=O)c1sc(NC(=O)c2ccco2)c(C#N)c1C
Second: CN1C2=CC=CC=CC2=[N+](C)C12C([N+](=O)[O-])=CC(=[N+]([O-])[O-])C=C2[N+](=O)[O-] (stereo not shown)
The “hERG current change (%, negative = inhibition) at 10uM” value of the first is lower: 0.887% for the first, 9.42% for the second.
